From the supplement of paper PMC12423691
The list shows a part of the results. Binding of human transcription factors and regulators to the viral nucleoprotein by AlphaScreen, crude cell-free proteins, amounts not normalised, one pass. Fold of the Venus control; higher = more signal. No active / inactive call. Single-pass screen; sequences are the whole Swiss-Prot entries looked up by name.

B1: NFE2L1, Q14494 (protein)
chain: MLSLKKYLTEGLLQFTILLSLIGVRVDVDTYLTSQLPPLREIILGPSSAYTQTQFHNLRNTLDGYGIHPKSIDLDNYFTARRLLSQVRALDRFQVPTTEVNAWLVHRDPEGSVSGSQPNSGLALESSSGLQDVTGPDNGVRESETEQGFGEDLEDLGAVAPPVSGDLTKEDIDLIDILWRQDIDLGAGREVFDYSHRQKEQDVEKELRDGGEQDTWAGEGAEALARNLLVDGETGESFPAQVPSGEDQTALSLEECLRLLEATCPFGENAEFPADISSITEAVPSESEPPALQNNLLSPLLTGTESPFDLEQQWQDLMSIMEMQAMEVNTSASEILYSAPPGDPLSTNYSLAPNTPINQNVSLHQASLGGCSQDFLLFSPEVESLPVASSSTLLPLAPSNSTSLNSTFGSTNLTGLFFPPQLNGTANDTAGPELPDPLGGLLDEAMLDEISLMDLAIEEGFNPVQASQLEEEFDSDSGLSLDSSHSPSSLSSSEGSSSSSSSSSSSSSSASSSASSSFSEEGAVGYSSDSETLDLEEAEGAVGYQPEYSKFCRMSYQDPAQLSCLPYLEHVGHNHTYNMAPSALDSADLPPPSALKKGSKEKQADFLDKQMSRDEHRARAMKIPFTNDKIINLPVEEFNELLSKYQLSEAQLSLIRDIRRRGKNKMAAQNCRKRKLDTILNLERDVEDLQRDKARLLREKVEFLRSLRQMKQKVQSLYQEVFGRLRDENGRPYSPSQYALQYAGDGSVLLIPRTMADQQARRQERKPKDRRK
B2: SOX30, O94993 (protein)
chain: MERARPEPPPQPRPLRPAPPPLPVEGTSFWAAAMEPPPSSPTLSAAASATLASSCGEAVASGLQPAVRRLLQVKPEQVLLLPQPQAQNEEAAASSAQARLLQFRPDLRLLQPPTASDGATSRPELHPVQPLALHVKAKKQKLGPSLDQSVGPRGAVETGPRASRVVKLEGPGPALGYFRGDEKGKLEAEEVMRDSMQGGAGKSPAAIREGVIKTEEPERLLEDCRLGAEPASNGLVHGSAEVILAPTSGAFGPHQQDLRIPLTLHTVPPGARIQFQGAPPSELIRLTKVPLTPVPTKMQSLLEPSVKIETKDVPLTVLPSDAGIPDTPFSKDRNGHVKRPMNAFMVWARIHRPALAKANPAANNAEISVQLGLEWNKLSEEQKKPYYDEAQKIKEKHREEFPGWVYQPRPGKRKRFPLSVSNVFSGTTQNIISTNPTTVYPYRSPTYSVVIPSLQNPITHPVGETSPAIQLPTPAVQSPSPVTLFQPSVSSAAQVAVQDPSLPVYPALPPQRFTGPSQTDTHQLHSEATHTVKQPTPVSLESANRISSSASTAHARFATSTIQPPREYSSVSPCPRSAPIPQASPIPHPHVYQPPPLGHPATLFGTPPRFSFHHPYFLPGPHYFPSSTCPYSRPPFGYGNFPSSMPECLSYYEDRYPKHEGIFSTLNRDYSFRDYSSECTHSENSRSCENMNGTSYYNSHSHSGEENLNPVPQLDIGTLENVFTAPTSTPSSIQQVNVTDSDEEEEEKVLRDL
B3: HR, O43593 (protein)
chain: MESTPSFLKGTPTWEKTAPENGIVRQEPGSPPRDGLHHGPLCLGEPAPFWRGVLSTPDSWLPPGFPQGPKDMLPLVEGEGPQNGERKVNWLGSKEGLRWKEAMLTHPLAFCGPACPPRCGPLMPEHSGGHLKSDPVAFRPWHCPFLLETKILERAPFWVPTCLPPYLVSGLPPEHPCDWPLTPHPWVYSGGQPKVPSAFSLGSKGFYYKDPSIPRLAKEPLAAAEPGLFGLNSGGHLQRAGEAERPSLHQRDGEMGAGRQQNPCPLFLGQPDTVPWTSWPACPPGLVHTLGNVWAGPGDGNLGYQLGPPATPRCPSPEPPVTQRGCCSSYPPTKGGGLGPCGKCQEGLEGGASGASEPSEEVNKASGPRACPPSHHTKLKKTWLTRHSEQFECPRGCPEVEERPVARLRALKRAGSPEVQGAMGSPAPKRPPDPFPGTAEQGAGGWQEVRDTSIGNKDVDSGQHDEQKGPQDGQASLQDPGLQDIPCLALPAKLAQCQSCAQAAGEGGGHACHSQQVRRSPLGGELQQEEDTATNSSSEEGPGSGPDSRLSTGLAKHLLSGLGDRLCRLLRREREALAWAQREGQGPAVTEDSPGIPRCCSRCHHGLFNTHWRCPRCSHRLCVACGRVAGTGRAREKAGFQEQSAEECTQEAGHAACSLMLTQFVSSQALAELSTAMHQVWVKFDIRGHCPCQADARVWAPGDAGQQKESTQKTPPTPQPSCNGDTHRTKSIKEETPDSAETPAEDRAGRGPLPCPSLCELLASTAVKLCLGHERIHMAFAPVTPALPSDDRITNILDSIIAQVVERKIQEKALGPGLRAGPGLRKGLGLPLSPVRPRLPPPGALLWLQEPQPCPRRGFHLFQEHWRQGQPVLVSGIQRTLQGNLWGTEALGALGGQVQALSPLGPPQPSSLGSTTFWEGFSWPELRPKSDEGSVLLLHRALGDEDTSRVENLAASLPLPEYCALHGKLNLASYLPPGLALRPLEPQLWAAYGVSPHRGHLGTKNLCVEVADLVSILVHADTPLPAWHRAQKDFLSGLDGEGLWSPGSQVSTVWHVFRAQDAQRIRRFLQMVCPAGAGALEPGAPGSCYLDAGLRRRLREEWGVSCWTLLQAPGEAVLVPAGAPHQVQGLVSTVSVTQHFLSPETSALSAQLCHQGPSLPPDCHLLYAQMDWAVFQAVKVAVGTLQEAK
B4: SMAD5, Q99717 (protein)
chain: MTSMASLFSFTSPAVKRLLGWKQGDEEEKWAEKAVDALVKKLKKKKGAMEELEKALSSPGQPSKCVTIPRSLDGRLQVSHRKGLPHVIYCRVWRWPDLQSHHELKPLDICEFPFGSKQKEVCINPYHYKRVESPVLPPVLVPRHNEFNPQHSLLVQFRNLSHNEPHMPQNATFPDSFHQPNNTPFPLSPNSPYPPSPASSTYPNSPASSGPGSPFQLPADTPPPAYMPPDDQMGQDNSQPMDTSNNMIPQIMPSISSRDVQPVAYEEPKHWCSIVYYELNNRVGEAFHASSTSVLVDGFTDPSNNKSRFCLGLLSNVNRNSTIENTRRHIGKGVHLYYVGGEVYAECLSDSSIFVQSRNCNFHHGFHPTTVCKIPSSCSLKIFNNQEFAQLLAQSVNHGFEAVYELTKMCTIRMSFVKGWGAEYHRQDVTSTPCWIEIHLHGPLQWLDKVLTQMGSPLNPISSVS
B5: RFX1, P22670 (protein)
chain: MATQAYTELQAAPPPSQPPQAPPQAQPQPPPPPPPAAPQPPQPPTAAATPQPQYVTELQSPQPQAQPPGGQKQYVTELPAVPAPSQPTGAPTPSPAPQQYIVVTVSEGAMRASETVSEASPGSTASQTGVPTQVVQQVQGTQQRLLVQTSVQAKPGHVSPLQLTNIQVPQQALPTQRLVVQSAAPGSKGGQVSLTVHGTQQVHSPPEQSPVQANSSSSKTAGAPTGTVPQQLQVHGVQQSVPVTQERSVVQATPQAPKPGPVQPLTVQGLQPVHVAQEVQQLQQVPVPHVYSSQVQYVEGGDASYTASAIRSSTYSYPETPLYTQTASTSYYEAAGTATQVSTPATSQAVASSGSMPMYVSGSQVVASSTSTGAGASNSSGGGGSGGGGGGGGGGGGGGSGSTGGGGSGAGTYVIQGGYMLGSASQSYSHTTRASPATVQWLLDNYETAEGVSLPRSTLYCHYLLHCQEQKLEPVNAASFGKLIRSVFMGLRTRRLGTRGNSKYHYYGLRIKASSPLLRLMEDQQHMAMRGQPFSQKQRLKPIQKMEGMTNGVAVGQQPSTGLSDISAQVQQYQQFLDASRSLPDFTELDLQGKVLPEGVGPGDIKAFQVLYREHCEAIVDVMVNLQFTLVETLWKTFWRYNLSQPSEAPPLAVHDEAEKRLPKAILVLLSKFEPVLQWTKHCDNVLYQGLVEILIPDVLRPIPSALTQAIRNFAKSLESWLTHAMVNIPEEMLRVKVAAAGAFAQTLRRYTSLNHLAQAARAVLQNTAQINQMLSDLNRVDFANVQEQASWVCRCEDRVVQRLEQDFKVTLQQQNSLEQWAAWLDGVVSQVLKPYQGSAGFPKAAKLFLLKWSFYSSMVIRDLTLRSAASFGSFHLIRLLYDEYMYYLIEHRVAQAKGETPIAVMGEFANLATSLNPLDPDKDEEEEEEEESEDELPQDISLAAGGESPALGPETLEPPAKLARTDARGLFVQALPSS
B6: PTGIS, Q16647 (protein)
chain: MAWAALLGLLAALLLLLLLSRRRTRRPGEPPLDLGSIPWLGYALDFGKDAASFLTRMKEKHGDIFTILVGGRYVTVLLDPHSYDAVVWEPRTRLDFHAYAIFLMERIFDVQLPHYSPSDEKARMKLTLLHRELQALTEAMYTNLHAVLLGDATEAGSGWHEMGLLDFSYSFLLRAGYLTLYGIEALPRTHESQAQDRVHSADVFHTFRQLDRLLPKLARGSLSVGDKDHMCSVKSRLWKLLSPARLARRAHRSKWLESYLLHLEEMGVSEEMQARALVLQLWATQGNMGPAAFWLLLFLLKNPEALAAVRGELESILWQAEQPVSQTTTLPQKVLDSTPVLDSVLSESLRLTAAPFITREVVVDLAMPMADGREFNLRRGDRLLLFPFLSPQRDPEIYTDPEVFKYNRFLNPDGSEKKDFYKDGKRLKNYNMPWGAGHNHCLGRSYAVNSIKQFVFLVLVHLDLELINADVEIPEFDLSRYGFGLMQPEHDVPVRYRIRP
B7: STAG2, Q8N3U4 (protein)
chain: MIAAPEIPTDFNLLQESETHFSSDTDFEDIEGKNQKQGKGKTCKKGKKGPAEKGKGGNGGGKPPSGPNRMNGHHQQNGVENMMLFEVVKMGKSAMQSVVDDWIESYKHDRDIALLDLINFFIQCSGCKGVVTAEMFRHMQNSEIIRKMTEEFDEDSGDYPLTMAGPQWKKFKSSFCEFIGVLVRQCQYSIIYDEYMMDTVISLLTGLSDSQVRAFRHTSTLAAMKLMTALVNVALNLSINMDNTQRQYEAERNKMIGKRANERLELLLQKRKELQENQDEIENMMNAIFKGVFVHRYRDAIAEIRAICIEEIGIWMKMYSDAFLNDSYLKYVGWTMHDKQGEVRLKCLTALQGLYYNKELNSKLELFTSRFKDRIVSMTLDKEYDVAVQAIKLLTLVLQSSEEVLTAEDCENVYHLVYSAHRPVAVAAGEFLYKKLFSRRDPEEDGMMKRRGRQGPNANLVKTLVFFFLESELHEHAAYLVDSMWDCATELLKDWECMNSLLLEEPLSGEEALTDRQESALIEIMLCTIRQAAECHPPVGRGTGKRVLTAKEKKTQLDDRTKITELFAVALPQLLAKYSVDAEKVTNLLQLPQYFDLEIYTTGRLEKHLDALLRQIRNIVEKHTDTDVLEACSKTYHALCNEEFTIFNRVDISRSQLIDELADKFNRLLEDFLQEGEEPDEDDAYQVLSTLKRITAFHNAHDLSKWDLFACNYKLLKTGIENGDMPEQIVIHALQCTHYVILWQLAKITESSSTKEDLLRLKKQMRVFCQICQHYLTNVNTTVKEQAFTILCDILMIFSHQIMSGGRDMLEPLVYTPDSSLQSELLSFILDHVFIEQDDDNNSADGQQEDEASKIEALHKRRNLLAAFCKLIVYTVVEMNTAADIFKQYMKYYNDYGDIIKETMSKTRQIDKIQCAKTLILSLQQLFNEMIQENGYNFDRSSSTFSGIKELARRFALTFGLDQLKTREAIAMLHKDGIEFAFKEPNPQGESHPPLNLAFLDILSEFSSKLLRQDKRTVYVYLEKFMTFQMSLRREDVWLPLMSYRNSLLAGGDDDTMSVISGISSRGSTVRSKKSKPSTGKRKVVEGMQLSLTEESSSSDSMWLSREQTLHTPVMMQTPQLTSTIMREPKRLRPEDSFMSVYPMQTEHHQTPLDYNRRGTSLMEDDEEPIVEDVMMSSEGRIEDLNEGMDFDTMDIDLPPSKNRRERTELKPDFFDPASIMDESVLGVSMF

target: nucleoprotein N of Crimean-Congo hemorrhagic fever virus; test: AlphaScreen luminescence signal relative to Venus negative control (fold); higher = stronger binding to CCHFV N
Description: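 AlphaScreen binding of cell-free made, FLAG-GST-tagged human transcription factors and regulators (crude translation products) to biotinylated N protein; signal as fold of the FLAG-GST-Venus control. One pass.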

Binder	AlphaScreen luminescence signal
B1	4.42
B2	2.6
B3	2.05
B4	1.26
B5	1.95
B6	2.05
B7	4.19
